Measured values as given in PubChem BioAssay AID686978 (National Center for Advancing Translational Sciences (NCATS), 2013).
Several values for one entry are separate records, joined by “and”; a condition that tells them apart may be missing. Equal values may be shown once. Screen size: about 420,000 compounds; about 64,000 (15%) were called active. This list was built around the results that the source calls inconclusive (neither active nor inactive); the mix of calls is not that of the screen. Calls come from the whole dose curve; as a rule, active = well fitted inhibition curve with a large enough effect; inconclusive = small, poorly fitted or top-dose-only effect; inactive = flat fitted curve, though single readings scatter. Where the call is inconclusive, the potency comes from a doubtful curve fit.
% is set by controls: 0 for no effect and ±100 for the full control effect; potency is the fitted concentration of half-maximal effect; tags give direction and shape of the fitted curve.

Assay: qHTS for Inhibitors of human tyrosyl-DNA phosphodiesterase 1 (TDP1): qHTS in cells in absence of CPT; note: nearly all actives have a fitted effect of over 55% in size
Details: DT40 Tdp1-/- hTDP1 cells, no CPT, ATP luminescence, 48 h; activity change, negative = growth inhibition: at 46.2 µM (top of the series) unless noted
Summary of the method: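 No-CPT arm: Tdp1-/-;hTDP1 DT40 cells (400/well) plus compounds, incubated ≥48 hr at 37 °C. Readout CellTiter-Glo luminescence.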
In the case of `CC1CCCC(C)N1C(=O)CSc1nnnn1-c1cccc2c1CCCC2` (stereo not given), the Potency is reported as inconclusive: 18.4 µM [inhibitor, partial curve].
With `Cc1ccc(C)c(C(=O)c2c(N)c(-c3nc(-c4ccc5c(c4)OCO5)cs3)c3ccccn23)c1` the Potency was inconclusive: 9.2 µM [inhibitor, partial curve].
With `Cc1cccc(NC(=O)C2CCC(CNS(=O)(=O)c3ccc(Br)s3)CC2)c1` (stereo not given) the Potency was active: 16.4 µM.
With `O=C(c1ccncc1)N1CCC2(CC1)CN(c1ccccc1)C2` the Potency was inconclusive: 18.4 µM [inhibitor, partial curve, poor fit].
For `CN1CCN(c2oc(-c3ccc([N+](=O)[O-])cc3)nc2C#N)CC1`, the Potency was inconclusive: 11.6 µM [inhibitor, single point].
For `O=C(Nc1ccc(N2CCOCC2)cc1)C1(c2ccc(Cl)cc2)CCC1`, the Potency was inconclusive: 8.2 µM [inhibitor, partial curve].
With `Cc1cc(OCCCC(=O)Nc2cccc(-n3cnnn3)c2)ccc1Cl` the Potency was active: 11.6 µM.
In the case of `O=C1C=CC(=Nc2ccc(F)cc2)O1`, the Potency is reported as active: 4.61 µM.
For `CCN(c1ccccc1)S(=O)(=O)c1ccc(F)cc1C`, the Potency was inconclusive: 23.1 µM [inhibitor, single point].
With `Cc1ccc2c(c1)c1c(n2CC(O)CNC(C)(C)C)CCCC1` (stereo not given) the Potency was inconclusive: 29.1 µM [inhibitor, single point].
In the case of `O=C(Nc1ccc(Cl)c(S(=O)(=O)N2CCOCC2)c1)C1=NN(c2ccccc2)C(=O)CC1`, the Potency is reported as inconclusive: 23.1 µM [inhibitor, single point].
In the case of `CCc1ccc(-n2c(=O)c3c4c(sc3n(CC(=O)N3CCC(C)CC3)c2=O)CCC4)cc1`, the Potency is reported as “inactive”.
In the case of `CCCn1c(N2CCN(S(=O)(=O)Cc3ccccc3)CC2)nc2ccccc21`, the Potency is reported as inconclusive: 29.1 µM [inhibitor, single point].
For `COc1ccc(NC(=O)N2CCCC3(CCN(S(=O)(=O)c4ccccc4)CC3)C2)cc1`, the Potency was “inactive”.
With `COc1ccc(C(=O)OCC(=O)Nc2cc(S(=O)(=O)N3CCOCC3)ccc2N2CCCC2)cc1` the Potency was “inactive”.
For `CCCCCCN(C(=O)CCCCCN1C(=O)NC(c2ccc([N+](=O)[O-])cc2)C(C(=O)OCc2ccccc2)=C1C)C(C(=O)NCCCC)C1CCCCC1` (stereo not given), the Potency was active: 5.8 µM.
For `CN(C(=O)c1cccc(NC(=O)Cc2cccc(NC(=O)C3CCCN(C(=O)C4CCCC4)C3)c2)c1)C1CCC1` (stereo not given), the Potency was inconclusive: 20.6 µM [inhibitor, single point].
In the case of `O=C(CSc1nc2[nH]ncc2c(=O)[nH]1)Nc1cc(C(F)(F)F)ccc1Cl`, the Potency is reported as inconclusive: 29.1 µM [inhibitor, single point].
For `COc1ccc(C(=O)OCc2nc(N)nc(Nc3ccccc3C)n2)cc1OC`, the Potency was inconclusive: 29.1 µM [inhibitor, single point].
For `N#Cc1ccc(S(=O)(=O)N2CCCN(c3nc4ccc(Cl)cc4s3)CC2)cc1`, the Potency was inconclusive: 18.4 µM [inhibitor, single point].
In the case of `Cc1ccc(-c2cc(=O)c3ccccc3[nH]2)cc1`, the Potency is reported as active: 9.2 µM.
With `Cc1ccc(S(=O)(=O)Oc2ccc(/C=N/NC(=O)c3ccncc3)cc2)cc1` the Potency was inconclusive: 23.1 µM [inhibitor, single point].
In the case of `COc1ccc(N(CC(=O)Nc2cc(Cl)ccc2C)S(=O)(=O)c2c(C)n[nH]c2C)cc1`, the Potency is reported as active: 5.17 µM.
For `NC(=O)c1c(NC(=O)CSc2nnc(-c3ccco3)n2-c2ccccc2)sc2c1CCC2`, the Potency was inconclusive: 23.1 µM [inhibitor, partial curve].
In the case of `Cc1cccc2cc(CN(CC3CCCO3)S(=O)(=O)c3ccccc3)c(=O)[nH]c12` (stereo not given), the Potency is reported as inconclusive: 13 µM [inhibitor, partial curve].
With `COc1cccc(CN2CCN(S(=O)(=O)c3ccccc3)CC2)c1OC` the Potency was inconclusive: 29.1 µM [inhibitor, single point].
In the case of `CCOc1ccccc1N1CCN(c2nc(N)c(C#N)c(CC#N)c2C#N)CC1`, the Potency is reported as active: 20.6 µM.
With `CCOC(=O)C1CCN(C(=O)c2sc3ncnc(N4CCC(C)CC4)c3c2C)CC1` the Potency was inconclusive: 18.4 µM [inhibitor, single point].
With `Cc1ccc(NC(=O)C2CCCN(S(=O)(=O)c3cccc4cccnc34)C2)cc1` (stereo not given) the Potency was active: 20.6 µM.
For `O=C(/C=C/Nc1ccccc1Br)c1ccccn1`, the Potency was inconclusive: 5.8 µM [inhibitor, partial curve].
With `O=C(NCCN1CCCCC1)c1ccc(Oc2cc(Cl)cc(Cl)c2)o1` the Potency was inconclusive: 29.1 µM [inhibitor, single point].
With `Clc1ccc(CN2CCC(c3ccccc3)CC2)cc1` the Potency was inconclusive: 23.1 µM [inhibitor, single point].
With `Cc1ccc(Cl)cc1NC(=O)c1oc2ccc(S(=O)(=O)N(C)C3CCCCC3)cc2c1C` the Potency was inconclusive: 29.1 µM [inhibitor, single point].
With `CC(=O)N1CCc2cc(S(=O)(=O)N3CCCCC3C)ccc21` (stereo not given) the Potency was inconclusive: 0.82 µM [inhibitor, full curve, poor fit].
With `CCOC(=O)Cc1csc(NC(=O)CSc2nnc(C3CC3)n2C)n1` the Potency was “inactive”.
For `CC1CN(c2cc(-c3ccccc3)c3ccccc3n2)CC(C)O1` (stereo not given), the Potency was inconclusive: 20 µM [inhibitor, single point].
For `COc1ccc(-c2noc(CCCOc3ccc(Cl)cc3Cl)n2)cc1`, the Potency was inconclusive: 7.31 µM [inhibitor, partial curve].
For `CCOC(=O)N1CCC(Nc2c(N3CCN(c4cc(Cl)ccc4C)CC3)c(=O)c2=O)CC1`, the Potency was inconclusive: 29.1 µM [inhibitor, single point].
For `CCN(CC)CCCN1C(=O)C(O)=C(C(=O)c2cc3ccccc3o2)C1c1ccccn1` (stereo not given), the Potency was inconclusive: 18.4 µM [inhibitor, single point].
For `O=[N+]([O-])c1cc(Cl)ccc1Oc1ccc(-c2nnco2)cc1`, the Potency was “inactive”.
In the case of `O=C(NC(Cc1c[nH]c2ccccc12)C(=O)Nc1ccc(OC(F)(F)F)cc1)c1cccs1` (stereo not given), the Potency is reported as inconclusive: 23.1 µM [inhibitor, single point].
With `Cc1ccn2c(NC(=O)c3ccccc3)c(-c3ccccc3)nc2c1` the Potency was “inactive”.
For `Cc1cccc(CS(=O)(=O)c2ncc(Cl)c(C(=O)Nc3c(C)cccc3C)n2)c1`, the Potency was active: 4.11 µM.
In the case of `COc1ccc(-c2[nH]ncc2C=O)cc1`, the Potency is reported as “inactive”.
For `Cc1nn(C(C)C(=O)N2CCN(c3ccc(Cl)cc3)CC2)c(=O)c2cc3occc3n12` (stereo not given), the Potency was active: 16.4 µM.
In the case of `CCCc1cc(=O)oc2cc(C)cc(OCC(=O)NCc3cccnc3)c12`, the Potency is reported as “inactive”.
For `Cc1ccc(-c2nc3cnccn3c2Nc2ccc3c(c2)OCO3)cc1`, the Potency was inconclusive: 29.1 µM [inhibitor, single point].
In the case of `Cc1ccc(OCC(=O)Nc2cc(-c3nc4cc(Cl)ccc4o3)ccc2C)c(C)c1`, the Potency is reported as “inactive”.
With `COc1cccc(N=Cc2c[nH][nH]c2=O)c1` the Potency was “inactive”.
For `CCCn1c(SCC(=O)NC(C)C23CC4CC(CC(C4)C2)C3)n[nH]c1=O` (stereo not given), the activity change, negative = growth inhibition was inconclusive: -35% [inhibitor].
With `CC1CCN(S(=O)(=O)c2cc3c4c(c2)CCN4C(=O)CC3)CC1` the Potency was “inactive”.
With `COc1cc(/C=C2\SC(N)=NC2=O)cc(Cl)c1O` the Potency was inconclusive: 29.1 µM [inhibitor, single point].
With `CC(=O)CSc1nnc2cc(C)c3cc(C)cc(C)c3n12` the Potency was “inactive”.
For `CCOc1cc(NC(=S)Nc2ccccc2)c(OCC)cc1NC(=O)c1ccccc1`, the Potency was active: 25.9 µM.
For `COc1ccc(S(=O)(=O)Nc2ccc(F)cc2F)cc1C(=O)N1CCOCC1`, the Potency was “inactive”.
With `COc1ccc(S(=O)(=O)N2CCOCC2)cc1NC(=O)c1ccc(S(=O)(=O)N(C)c2ccccc2OC)cc1` the Potency was inconclusive: 16.4 µM [inhibitor, partial curve, poor fit].
For `COc1ccc(CNC(=O)C2CCN(S(=O)(=O)c3ccc4c(c3)CC(C)N4C(=O)C3CC3)CC2)cc1` (stereo not given), the Potency was “inactive”.
For `CC(C)(C)c1ccc(C(=O)N2CCC2(C)C(=O)Nc2ccc3nc[nH]c3c2)cc1` (stereo not given), the Potency was active: 18.4 µM.
With `COc1cc(NC(=O)CCc2c(C)nc3cc(-c4ccccc4)nn3c2C)cc(OC)c1OC` the Potency was active: 20.6 µM.
For `CCOC(=O)[C@]12CCC=C1N(Cc1ccco1)C(=O)[C@H](CC(=O)NCC1CCCCC1)C2`, the Potency was inconclusive: 29.1 µM [inhibitor, single point].
With `COc1ccccc1-c1ccnc(-n2ncc(C(=O)NCc3ccncc3)c2C)n1` the Potency was “inactive”.
In the case of `CCOc1ccc(CN(C(=O)c2cc(=O)c3cc(C)cc(C)c3o2)C2CCS(=O)(=O)C2)cc1` (stereo not given), the Potency is reported as inconclusive: 29.1 µM [inhibitor, single point] and inconclusive: 23.1 µM [inhibitor, single point].
With `COc1cc(-c2ccccc2)nc(N)n1` the Potency was “inactive”.
With `O=S(=O)(Cc1ccccc1)Nc1ccc(S(=O)(=O)N2CCCC2)cc1` the Potency was “inactive”.
For `CCCCn1c(N)c(S(=O)(=O)c2ccc(C)cc2)c2nc3ccccc3nc21`, the Potency was inconclusive: 25.9 µM [inhibitor, single point].
In the case of `Cc1ccc2c(c1)c(=O)c(C(=O)c1ccc3c(c1)OCO3)cn2Cc1ccc(Cl)cc1`, the Potency is reported as active: 16.4 µM.
With `COc1ccccc1N(CC(=O)Nc1ccc2c(c1)OCO2)S(=O)(=O)c1ccccc1` the Potency was active: 13 µM.
With `Cc1ccnc(NC(=O)c2ccc(OCC3CCCO3)cc2)c1` (stereo not given) the Potency was inconclusive: 11.6 µM [inhibitor, partial curve].
In the case of `CC(C)(C)c1ccc(C(=O)N2CCC2(C)C(=O)Nc2cccc(C#N)c2)cc1` (stereo not given), the Potency is reported as active: 16.4 µM.
For `COc1ccc(NC(=O)CSc2nc3sc(C)c(C)c3c(=O)n2Cc2ccco2)cc1`, the Potency was inconclusive: 23.1 µM [inhibitor, single point].
